Experimental data from PubChem BioAssay AID485294 (National Center for Advancing Translational Sciences (NCATS), 2010).
The campaign covered roughly 370,000 compounds. About 150 (0.041%) were called active. The shares of active, inactive and inconclusive entries below differ from those in the screen. Calls follow the shape of the dose curve; as a rule, active = well fitted inhibition curve with a large enough effect; inconclusive = small, poorly fitted or top-dose-only effect; inactive = flat fitted curve, though single readings scatter. Potencies of inconclusive entries are left out as doubtful fits.

Biological target: Beta-lactamase (Escherichia coli (strain K12)) (UniProt P00811)
UniProt P00811, sequence (P00811 whole entry, looked up): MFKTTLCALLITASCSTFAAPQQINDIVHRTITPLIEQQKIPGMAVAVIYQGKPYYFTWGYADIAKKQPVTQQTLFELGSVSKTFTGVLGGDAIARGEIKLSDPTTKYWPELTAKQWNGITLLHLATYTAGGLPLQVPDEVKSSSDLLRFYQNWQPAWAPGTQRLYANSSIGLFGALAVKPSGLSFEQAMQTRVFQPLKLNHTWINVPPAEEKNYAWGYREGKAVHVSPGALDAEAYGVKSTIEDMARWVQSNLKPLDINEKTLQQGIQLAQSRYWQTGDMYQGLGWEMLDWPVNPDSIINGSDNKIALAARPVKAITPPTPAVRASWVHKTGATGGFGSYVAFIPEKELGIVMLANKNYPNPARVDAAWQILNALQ
Assay: qHTS Inhibitors of AmpC Beta-Lactamase (assay with detergent); also: nearly all actives have a fitted effect of over 25% in size;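 as to activity change, negative = inhibition: 0% = no-compound wells and -100% = no-enzyme wells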
Conditions: AmpC hydrolysis of nitrocefin, absorbance 480 nm, 0.01% Triton; activity change, negative = inhibition: at 114 µM (top of the series)
How it was run: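 AmpC (5.3 nM in the dispensed reagent) in 20 mM phosphate pH 7.0 with 0.01% (detergent screen) or 0.0001% Triton X-100 was preincubated with compounds for 15 min at room temperature. Nitrocefin was then added from an 800 uM solution, and hydrolysis was followed at 480 nm.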
Potency is read from the fitted curve at half-maximal effect; tags tell the direction and shape of the fitted curve.

Row | Compound | activity change, negative = inhibition | Potency
1 | O=C(CSc1ncc(-c2ccc(Cl)cc2)[nH]1)Nc1ccccc1F | inactive: 8.71% | 
2 | CCOc1ccc(C(=O)c2cn(Cc3cccc(OC)c3)c3cc4c(cc3c2=O)OCO4)cc1 |  | inconclusive [inhibitor, single point]
3 | CC(C)COc1cccc(C(=O)Nc2ccc(CN3CCOCC3)cc2)c1 | inactive: 8.92% | 
4 | COc1ccc(CN(Cc2cccnc2)C(=S)NCCc2ccccc2)cc1OC |  | inconclusive [inhibitor, full curve]
5 | Cc1cc(C(=O)NC(C)c2ccncc2)cs1 (stereo unspecified) |  | inconclusive [inhibitor, full curve, poor fit]
6 | O=C(Nc1cccc2ccccc12)c1ccc(OC(=S)N2CCOCC2)cc1 |  | inconclusive [inhibitor, partial curve]
7 | CCn1c(SCc2nnc(-c3ccccc3)o2)nc2c1c(=O)n(C)c(=O)n2C | inactive: -9.45% | 
8 | COc1ccc(-n2c(SCc3ccc(C#N)cc3)nnc2-c2ccccn2)cc1 |  | inconclusive [inhibitor, full curve, poor fit]
9 | Cc1nnc(NC(=O)c2cc3ccccc3o2)s1 | inactive: 6.78% | 
10 | COCc1cc(C)n(CC(=O)NCc2ccccc2)c(=O)c1C#N |  | inconclusive [inhibitor, single point]
11 | Cc1cc(C)c(/C=C/c2onc(C)c2S(=O)(=O)N2CCC(C(=O)Nc3cccc(C)c3C)CC2)c(C)c1 | inactive: -9.31% | 
12 | Cn1c(=O)c(=O)n(C)c2cc(S(=O)(=O)N3CCc4ccccc43)ccc21 |  | inconclusive [inhibitor, full curve, poor fit]
13 | Cc1ccc(/C=N/NC(=O)c2nnn(-c3nonc3N)c2-c2ccc3c(c2)OCO3)s1 |  | inconclusive [inhibitor, full curve]
14 | CCN(CC(=O)Nc1c(F)cccc1F)C(=O)c1cccc(-n2cccc2)c1 |  | inconclusive [inhibitor, partial curve, poor fit]
15 | COc1cccc(CNC(=O)CCC2CCCN(C(=O)c3ccc(F)c(Cl)c3)C2)c1 (stereo unspecified) |  | inconclusive [inhibitor, full curve]
16 | O=C(Nc1ccccc1)Nc1cccc2ccccc12 | inactive: -6.72% | 
17 | C[N+]12CCC(CC1)C(OC(=O)C(O)(c1ccccc1)c1ccccc1)C2 (stereo unspecified) |  | inconclusive [inhibitor, full curve, poor fit]
18 | OC1CCN(Cc2cccc3ccccc23)CC1 | inactive: 5.04% | 
19 | Cc1cc(C(=O)CCl)c(C)n1CCc1ccc(Cl)cc1 | inactive: -2.48% | 
20 | COc1ccccc1C(=O)Nc1ccnn1C1CCN(CCCc2ccccc2)CC1 |  | inconclusive [inhibitor, single point]
21 | CCN(Cc1ccccc1)S(=O)(=O)c1ccc(C(=O)N(CCCN(C)C)c2nc3cc4c(cc3s2)OCO4)cc1 | inactive: -7.88% | 
22 | O=C(C1CC1)N1CCc2cc(S(=O)(=O)NCCC3=CCCCC3)ccc21 |  | inconclusive [inhibitor, full curve]

Row | Compound | activity change, negative = inhibition | Potency
23 | CCCOc1ccc(C(=O)N2CCN(c3ccc(N)cc3Cl)CC2)cc1 | inactive: -0.136% | 
24 | O=C(NCc1ccccc1)C1CCCN(S(=O)(=O)c2cccc3nonc23)C1 (stereo unspecified) |  | inconclusive [inhibitor, full curve, poor fit]
25 | O=C(CSc1ccc2nnc(-c3cccnc3)n2n1)N1CCc2ccccc21 |  | inconclusive [inhibitor, full curve, poor fit]
26 | O=C(Nc1ccc(Cl)c(Cl)c1)N(Cc1c[nH]c2ccccc12)C1CCCCC1 | inactive: -4.94% | 
27 | Oc1c(Br)cc(Br)cc1C=Nc1cccnc1 |  | inconclusive [inhibitor, full curve, poor fit]
28 | C/C(=N\NC(=O)c1ccc([N+](=O)[O-])c(C)c1)c1ccccc1Cl |  | inconclusive [inhibitor, full curve, poor fit]
29 | O=C(NCCN1CCCC1)c1cc(-c2ccncc2)nc2ccc(S(=O)(=O)N3CCOCC3)cc12 |  | inconclusive [inhibitor, single point]
30 | O=C(Cc1ccccc1)N1CCN(S(=O)(=O)c2ccc([N+](=O)[O-])cc2)CC1 |  | inconclusive [inhibitor, single point]
31 | Cc1cccnc1NC(=O)c1ccc(NS(=O)(=O)/C=C/c2ccccc2)cc1 |  | inconclusive [inhibitor, full curve, poor fit]
32 | Cn1cccc1C(=O)OCC(=O)NC1CCS(=O)(=O)C1 (stereo unspecified) | inactive: 9.58% | 
33 | Cc1ccccc1NC(=O)CSCCO |  | inconclusive [inhibitor, full curve, poor fit]
34 | Cc1ccc([C@@H]2[C@@H]3C(=O)N(C)C(=O)[C@@H]3[C@]3(C)C(=O)N(Cc4ccccc4)CC(=O)N23)o1 |  | inconclusive [inhibitor, full curve, poor fit]
35 | O=C(O)COc1ccc(/C=C/C(=O)c2ccc(C3CCCCC3)cc2)cc1 |  | inconclusive [inhibitor, partial curve, poor fit]
36 | COc1ccc(C(=O)NCCCCCC(=O)N/N=C/c2ccco2)cc1OC |  | inconclusive [inhibitor, full curve]
37 | S=c1[nH]nc(C2CCCCC2)n1/N=C/c1cccc(Br)c1 |  | inconclusive [inhibitor, full curve, poor fit]
38 | COc1ccc(C(=O)NC2CC3CCCC(C2)N3CC(C)C)cc1 (stereo unspecified) |  | inconclusive [inhibitor, partial curve]
39 | CC[n+]1c(/C=C2\C=C(C)CC(C)C2)sc2ccccc21 (stereo unspecified) |  | inconclusive [inhibitor, single point]
40 | Cc1nn(-c2ccc(N3CCCC3)nn2)c(C)c1CCC(=O)Nc1ccccc1 | inactive: 19.8% | 
41 | Cc1cc(C)c(C#N)c(SCC(=O)Nc2ccc(S(=O)(=O)Nc3onc(C)c3C)cc2)n1 |  | inconclusive [inhibitor, full curve, poor fit]
42 | CCOC(=O)N1CCN(C(=O)CN(c2ccc(C)cc2)S(=O)(=O)c2c(C)noc2C)CC1 |  | inconclusive [inhibitor, full curve]
43 | Cc1cccc(-c2nc(CS(=O)CC(=O)NCCc3ccccc3)c(C)o2)c1 (stereo unspecified) |  | inconclusive [inhibitor, partial curve]
44 | C#CCOCCOCCOCCNc1nc(N2CCN(C(=O)[C@H](C(C)C)n3cc(CCO)nn3)CC2)nc(N2CCN(C(=O)[C@H](C(C)C)n3cc(CCO)nn3)CC2)n1 |  | inconclusive [inhibitor, full curve, poor fit]

Row | Compound | activity change, negative = inhibition | Potency
45 | CCOc1ccc2nc3c(cc2c1)CN(CCCO)C(=NCCOC)S3 |  | inconclusive [inhibitor, partial curve, poor fit]
46 | CC(C)CCn1c(Oc2ccc(Cl)cc2)nc2c1c(=O)n(C)c(=O)n2C |  | inconclusive [inhibitor, single point]
47 | Cc1ccc(NC(=O)CSc2nncn3c2cc2sccc23)cc1F | inactive: -3.49% | 
48 | CCOc1ccc(C(=O)NCCNC(=O)c2ccc(OCC)cc2)cc1 |  | inconclusive [inhibitor, single point]
49 | Cc1cc(NC(=O)CSc2nc3c(c(=O)n2-c2ccc(Br)cc2)SCC3)no1 | inactive: 0.899% | 
50 | COc1ccc(NC(=O)C2=CC(c3ccc(OC)cc3)=NS(=O)(=O)N2C)cc1 | inactive: -11.9% | 
51 | CCN(CC)C(=S)Nc1ccc(Cl)c(Cl)c1 |  | inconclusive [inhibitor, full curve, poor fit]
52 | C#Cc1ccc(CN2CCC(Oc3cc(C(=O)NC4CC4)ccc3OC)CC2)cc1 |  | inconclusive [inhibitor, full curve, poor fit]
53 | Cc1ccc2cccc(SCC(=O)NCC#N)c2n1 |  | inconclusive [inhibitor, partial curve]
54 | c1cncc(C2Nc3ccccc3-c3nc4ccccc4n32)c1 (stereo unspecified) |  | inconclusive [inhibitor, full curve, poor fit]
55 | COc1ccc(-c2cc(-c3cc(OC)ccc3O)[nH]n2)cc1 |  | inconclusive [inhibitor, full curve, poor fit]
56 | CCOc1ccc(C2CC(c3cccc(OC)c3)n3nc(N)nc3N2)cc1 (stereo unspecified) |  | inconclusive [inhibitor, full curve]
57 | CCOP(=S)(OCC)SCOC(=O)NCC(=O)OC |  | inconclusive [inhibitor, full curve, poor fit]
58 | Brc1ccc(C2C3=C(Nc4ncnn42)c2ccccc2OC3c2ccncc2)cc1 (stereo unspecified) | inactive: 0.076% | 
59 | Fc1ccccc1C1c2cccn2CCN1C(=S)Nc1cccc(Br)c1 (stereo unspecified) | inactive: 0.752% | 
60 | O=S(=O)(c1ccccc1)c1nc(-c2ccco2)oc1NCCCn1ccnc1 |  | inconclusive [inhibitor, partial curve]
61 | Cc1ccc(NC(=O)C(=O)NCC2CCCN2S(=O)(=O)c2cccs2)cc1 (stereo unspecified) |  | inconclusive [inhibitor, full curve, poor fit]
62 | COCCCN1C(=O)c2ccc(C(=O)O)cc2C1=O |  | inconclusive [inhibitor, full curve, poor fit]
63 | CC(C)C(=O)N(Cc1cc2ccccc2[nH]c1=O)C(C)C |  | inconclusive [inhibitor, partial curve, poor fit]
64 | O=[N+]([O-])/C(C=Nc1ccccc1O)=C\Nc1ccccc1O | inactive: -3.21% | 
65 | O=C(Nc1cccc(S(=O)(=O)N2CCCCCC2)c1)C1CC(=O)N(c2ccc3c(c2)OCCO3)C1 (stereo unspecified) |  | inconclusive [inhibitor, full curve, poor fit]
66 | CC(=O)NCc1ccc(S(=O)(=O)N/N=C/c2ccc(N(C)C)cc2)cc1 |  | inconclusive [inhibitor, full curve, poor fit]
